# Reference: publication PMC6919601, “Identification of Plasmodium dipeptidyl aminopeptidase allosteric inhibitors by high throughput screening” (PLoS ONE, 2019)
# Among all 110,000 compounds or so, about 230 (0.21%) showed an effect of 50% or more. This is one part of the list.
# Target: DPAP1 (Plasmodium falciparum, UniProt Q8IIJ9)
# Experiment: primary screen, percent inhibition; read by cleavage of a fluorogenic dipeptide substrate; higher = more effect of the substance
# Set-up: species or system P. falciparum D10 trophozoite lysates; single well
# 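Note: 30 min substrate incubation versus DMSO and 10 µM JCP410 controls.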
# DPAP1, sequence (Q8IIJ9 whole entry, looked up): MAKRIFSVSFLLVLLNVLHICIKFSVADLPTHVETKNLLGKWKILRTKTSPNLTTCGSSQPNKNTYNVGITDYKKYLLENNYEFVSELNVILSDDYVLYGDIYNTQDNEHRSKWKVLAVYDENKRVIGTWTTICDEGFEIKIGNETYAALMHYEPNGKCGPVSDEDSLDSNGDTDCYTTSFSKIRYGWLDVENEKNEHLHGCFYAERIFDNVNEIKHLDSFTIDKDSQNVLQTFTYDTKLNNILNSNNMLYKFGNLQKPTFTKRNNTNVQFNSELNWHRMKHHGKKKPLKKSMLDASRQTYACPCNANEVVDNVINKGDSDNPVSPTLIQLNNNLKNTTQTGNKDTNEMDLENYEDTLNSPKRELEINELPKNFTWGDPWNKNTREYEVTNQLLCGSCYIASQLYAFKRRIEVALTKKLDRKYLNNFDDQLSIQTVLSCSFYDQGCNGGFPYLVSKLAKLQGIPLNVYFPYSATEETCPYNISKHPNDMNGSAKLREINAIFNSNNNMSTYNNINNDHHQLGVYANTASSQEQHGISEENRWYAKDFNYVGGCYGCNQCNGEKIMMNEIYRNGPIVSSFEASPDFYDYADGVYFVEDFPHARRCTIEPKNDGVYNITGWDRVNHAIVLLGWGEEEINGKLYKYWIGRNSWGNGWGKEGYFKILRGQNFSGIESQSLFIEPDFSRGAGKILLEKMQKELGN
row,Compound,% Inhibition @ 10 uM [%]
1,CC1CC(C)CN(CCCNC(=O)c2ccc(CSc3nc4ccncc4[nH]3)cc2)C1 (centres unmarked),1.8
2,COc1cc(OC)c(OC)cc1CN1CCN(C2C3CC4CC(C3)CC2C4)CC1 (centres unmarked),2.6
3,Cc1cccc(CNc2nc3nc(C)c(Cc4ccccc4)c(O)n3n2)c1,2.62
4,CC(C)CC(O)CNC(C)(C)C (centres unmarked),1.96
5,CCc1ccc(-c2csc(-c3ccccn3)n2)cc1,5.7
6,COCCNC1CCN(Cc2ccccc2)CC1,1.57
7,Cc1ccc(-n2ncc3c(NCCCn4ccnc4)ncnc32)c(C)c1,1.58
8,CCCC[C@H](NC(=O)[C@H](CC(C)C)NC(=O)OCc1ccccc1)C(=O)c1nnc(-c2ccco2)o1,12.5
9,COCCN(CCNc1nc2ccccc2c2nc(-c3cccnc3)nn12)Cc1ccco1,0.981
10,CC(C)(C)c1ccc(C(=O)N[C@H](C(=O)NCC#N)C2CCCC2)cc1,-6.46
11,Brc1ccc2ncnc(N3CCOCC3)c2c1,-8.88
12,O=S(=O)(O)c1nc2ccccc2n1CCOc1ccccc1F,-5.4
13,CC1CN(C(=O)Cn2cc(SCC(=O)NCc3ccccc3)c3ccccc32)CC(C)O1 (centres unmarked),-1.68
14,O=c1nc2s/c(=C\c3ccccc3)c(=O)n2nc1Cc1ccccc1,0.222
15,O=C1SC(C2SC(=O)N(Cc3ccc(F)cc3)C2=O)C(=O)N1Cc1ccc(F)cc1 (centres unmarked),5.21
16,CCN(CC)S(=O)(=O)c1ccc(N/C=C2/C(=O)NC(=O)N(c3cccc(Cl)c3)C2=O)cc1,4.67
17,CC(C(=O)N1CC2(C)CC1CC(C)(C)C2)N1C(=O)c2ccccc2C1=O (centres unmarked),-3.09
18,Cc1ccc2occ(/C=C/C(=O)c3cc4ccc5ccccc5c4oc3=O)c(=O)c2c1,2.95
19,CCOC(=O)c1c(NC(=O)COCc2cc(-c3ccc(F)cc3)on2)sc2c1CCCC2,-3.81
20,CCN1CCN(C(CNC(=O)c2cccs2)c2cccnc2)CC1 (centres unmarked),-1.72
21,CCOc1ccc(C(=O)Nc2ccccn2)cc1Br,6.11

row,Compound,% Inhibition @ 10 uM [%]
1,CCCC[C@H](NC(=O)C(CC(C)c1ccccc1)NC(=O)c1ccc(-c2ccccc2Cl)cc1)C(=O)CC(=O)N1CCCC1 (some centres unmarked),-1.82
2,CC(C)CNC(=O)CSc1nc(-c2ccccc2)cc(C(F)(F)F)n1,-1.72
3,Nc1n[nH]c(CNC(=O)c2ccccc2)n1,4.4
4,COc1ccc2c(CNCCC3=CCCCC3)c(C(=O)O)n(Cc3ccccc3C)c2c1,2.54
5,COc1ccc(OC)c(/C=C2/N=C(c3cccc4ccccc34)OC2=O)c1,-6.62
6,CCc1nnc(NC(=O)C2CCCN(C(=O)c3cnn(-c4ccccc4)c3-n3cccc3)C2)s1 (centres unmarked),-0.281
7,Cc1ccc(C)c(OCCNS(=O)(=O)c2cccc(C(F)(F)F)c2)c1,2.99
8,COc1ccc(CN2C(=O)c3ccc(F)cc3C2=O)cc1,-2.12
9,N#CCCN(CC1COc2ccccc2O1)C(=O)c1ccccc1 (centres unmarked),-0.641
10,COc1ccc(NC(=O)CCc2ccccc2)cc1NC(=O)c1ccco1,9.5
11,COc1cc(C=C2C(=O)OC(C)(C)OC2=O)ccc1OCc1ccccc1,-9.32
12,CCOc1ccccc1C(=O)NCc1ccco1,-5.82
13,Cc1ccc2c(c1)c1c(c(=O)n(Cc3ccccc3)c(=O)n1CC(=O)NCc1ccccc1)n2C,1.44
14,COc1ccc(-c2cc(C)no2)cc1S(=O)(=O)NC1CCN(Cc2ccccc2)CC1,-0.615
15,Cn1c(=O)n(Cc2cccc(F)c2)c(=O)c2c1ncn2Cc1ccccc1,0.727
16,Cc1[nH]c2ccccc2c1/C=C1\C(=N)N2N=C(S(=O)(=O)CC(C)C)SC2=NC1=O,-3.35
17,CC(C[C@H](NC(=O)OCc1ccccc1)C(=O)NCC#N)c1c(F)cccc1F (some centres unmarked),0.079
18,Cc1nc(NCCc2cccs2)c2c3c(sc2n1)CCCC3,-0.999
19,COc1cc2c(cc1OC)C(C)N(CCC(N)=O)CC2 (centres unmarked),-1.82
20,C=C(C)Cn1c(SCC(N)=O)nc2sc3c(c2c1=O)CCCC3,-0.725
21,COc1cc(/C=C2\N=C(c3cccc(C)c3OC)OC2=O)cc(OC)c1OC,7.46

row,Compound,% Inhibition @ 10 uM [%]
1,CN1CC=C(/C=C/c2ccc3c(c2)OCO3)CC1,0.847
2,Cc1c2cnn(CC(=O)NCCCN3CCCCC3C)c(=O)c2c(C)n1Cc1ccccc1F (centres unmarked),-0.447
3,COc1ccccc1N1C(=O)CC(N2CCN(C)CC2)C1=O (centres unmarked),-6.08
4,Cc1nc(Cl)sc1C(=O)Nc1ccc2ccccc2c1,-7.4
5,Cc1nn(CC(=O)N2CCC(N3CCCCC3)CC2)c(=O)c2c1sc1ccccc12,-0.698
6,COc1cc(OC)cc(C(=O)Nc2cc(OC)ccc2OC)c1,-4.15
7,Cc1c(Cl)ccc(S(=O)(=O)N2CCN=C2c2ccccc2)c1Cl,5.49
8,O=c1oc2ccc3ccccc3c2cc1-c1cn2cccnc2n1,-2.6
9,COc1ccc(CCNCc2c(C(=O)O)c(C)n(Cc3ccccc3C)c2C)cc1OC,-0.23
10,Cc1c(CNCCc2ccccc2)c(C(=O)O)c(C)n1Cc1ccc(F)cc1Cl,-3.67
11,Cc1ccc2c(=O)cc(C(=O)NCc3ccc4c(c3)OCO4)oc2c1C,-3.24
12,N#CC1=C2SCN(Cc3cccnc3)CN2C(=O)CC1c1ccc(F)cc1 (centres unmarked),55.3
13,O=C1NC(=S)N/C1=C\c1cc2c(c([N+](=O)[O-])c1)OCO2,3.83
14,O=C1C2CC=CCC2C(=O)N1c1ccc(Cl)cc1O (centres unmarked),2.46
15,Clc1ccc(CN2CCN(c3ncccn3)CC2)cc1Cl,-4.61
16,Cc1cc(C)n(-c2cc(-n3nc(C)cc3C)ncn2)n1,-3.82
17,CCOc1ccccc1/C=C1\S/C(=N/c2ccc(C(=O)O)cc2)N(C)C1=O,-3.87
18,COc1cc(C2C(C#N)=C(N)OC3=C2C(=O)CC(c2ccco2)C3)cc(OC)c1OC (centres unmarked),-2.83
19,O=C(O)C1CC(=O)N(CCOc2ccccc2)C1 (centres unmarked),-3.78
20,CC(C)CC(NC(=O)c1cccc(NC(=O)NCc2ccccn2)c1)C(=O)NCC#N (centres unmarked),-2.35
